Experimental data as given in the supplement of paper PMC4967469.
Lines with a small IC50 respond at low doses; fits outside the tested doses are given as limits. AUC is the area under the same curve over the 256-fold range up to the top dose, as a fraction; it is 1 without any effect and falls as sensitivity rises. For some assays here: A top dose marked as inferred comes from the curve model; the source does not state it. For some assays here: An entry number marks a drug with two screens in the source, which often give different values.

What was measured:
Assay in all cases: Viability of human cancer cell lines after 72 h of drug (GDSC screen)
Docetaxel = compound: CC(=O)O[C@@]12CO[C@@H]1C[C@H](O)[C@@]1(C)C(=O)[C@H](O)C3=C(C)[C@@H](OC(=O)[C@H](O)[C@@H](NC(=O)OC(C)(C)C)c4ccccc4)C[C@@](O)([C@@H](OC(=O)c4ccccc4)[C@H]21)C3(C)C [Docetaxel]; details: top dose 0.0125 µM
Procedure: (§1)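 Human cancer cell lines in 384-well plates, medium with 10% serum, drug for 72 h over a 256-fold dose range (nine 2-fold or five 4-fold steps up to the top dose). Adherent lines were fixed and stained with the nucleic acid dye Syto60, suspension lines read with resazurin; signal relative to control wells, capped at 0 and 100%. One two-parameter sigmoid per drug and line, fitted in a mixed model over all curves with the slope shared within a line.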

AMG-706 = compound: CC1(C)CNc2cc(NC(=O)c3cccnc3NCc3ccncc3)ccc21 [AMG-706]; details: top dose 2 µM; top dose inferred
Procedure: as §1

JNK Inhibitor VIII = compound: CCOc1nc(NC(=O)Cc2cc(OC)ccc2OC)cc(N)c1C#N [JNK Inhibitor VIII]; details: top dose 10 µM; top dose inferred
Procedure: as §1

NSC-207895 = compound: CN1CCN(c2ccc([N+](=O)[O-])c3no[n+]([O-])c23)CC1 [NSC-207895]; details: top dose 20 µM; top dose inferred
Procedure: as §1

FTI-277 = compound: COC(=O)[C@H](CCSC)NC(=O)c1ccc(NC[C@@H](N)CS)cc1-c1ccccc1 [FTI-277]; details: top dose 1.024 µM; top dose inferred
Procedure: as §1

YM155 = compound: COCC[n+]1c2c(n(Cc3cnccn3)c1C)C(=O)c1ccccc1C2=O [YM155]; details: top dose 5.12 µM
Procedure: as §1

OSI-906 = compound: C[C@]1(O)C[C@@H](c2nc(-c3ccc4ccc(-c5ccccc5)nc4c3)c3c(N)nccn32)C1 [OSI-906]; details: top dose 2.56 µM; top dose inferred
Procedure: as §1

SB-715992 = compound: Cc1ccc(C(=O)N(CCCN)[C@@H](c2nc3cc(Cl)ccc3c(=O)n2Cc2ccccc2)C(C)C)cc1 [SB-715992]; details: top dose 0.128 µM; top dose inferred
Procedure: as §1

JQ1 = compound: Cc1sc2c(c1C)C(c1ccc(Cl)cc1)=N[C@@H](CC(=O)OC(C)(C)C)c1nnc(C)n1-2 [JQ1]
Procedure: as §1

Belinostat = compound: O=C(/C=C/c1cccc(S(=O)(=O)Nc2ccccc2)c1)NO [Belinostat]; details: top dose 20 µM; top dose inferred
Procedure: as §1

JNJ-26854165 = compound: c1ccc2c(CCNc3ccc(Nc4ccncc4)cc3)c[nH]c2c1 [JNJ-26854165]; details: top dose 10 µM
Procedure: as §1

[1] = top dose 1 µM, screen: GDSC drug entry 1218, top dose inferred
[2] = top dose 2.56 µM, screen: GDSC drug entry 163

Cell Line	AUC (Docetaxel)	IC50 (Docetaxel)	AUC (AMG-706)	IC50 (AMG-706)	AUC (JNK Inhibitor VIII)	IC50 (JNK Inhibitor VIII)	AUC (NSC-207895)	IC50 (NSC-207895)	AUC (FTI-277)	IC50 (FTI-277)	AUC (YM155)	IC50 (YM155)	AUC (OSI-906)	IC50 (OSI-906)	AUC (SB-715992)	IC50 (SB-715992)	AUC (JQ1; [1])	IC50 (JQ1; [1])	AUC (JQ1; [2])	IC50 (JQ1; [2])	AUC (Belinostat)	IC50 (Belinostat)	AUC (JNJ-26854165)	IC50 (JNJ-26854165)
NCI-H1435 (lung adenocarcinoma, semi-adherent)	0.977	> 0.0125 µM	0.993	> 2 µM	0.992	> 10 µM	0.989	> 20 µM	0.987	> 1.02 µM	0.667	0.88 µM	0.99	> 2.56 µM	0.977	> 0.128 µM	0.989	> 1 µM	0.915	> 2.56 µM	0.993	> 20 µM	0.993	> 10 µM
NCI-H1563 (lung adenocarcinoma, adherent)	0.846	0.0119 µM	0.902	> 2 µM	0.969	> 10 µM	0.973	> 20 µM	0.985	> 1.02 µM	0.475	0.27 µM	0.958	> 2.56 µM	0.985	> 0.128 µM	0.968	> 1 µM	0.974	> 2.56 µM	0.674	4.21 µM	0.942	> 10 µM
NCI-H1568 (lung adenocarcinoma, adherent)	0.699	0.00328 µM	0.966	> 2 µM	0.962	> 10 µM	0.972	> 20 µM	0.978	> 1.02 µM	0.921	> 5.12 µM	0.899	> 2.56 µM	0.968	> 0.128 µM	0.976	> 1 µM	0.802	1.64 µM	0.981	> 20 µM	0.797	6.12 µM
NCI-H1623 (lung adenocarcinoma, adherent)	0.836	0.0111 µM	0.982	> 2 µM	0.985	> 10 µM	0.929	> 20 µM	0.985	> 1.02 µM	0.218	0.0387 µM	0.874	> 2.56 µM	0.981	> 0.128 µM	0.982	> 1 µM	0.964	> 2.56 µM	0.433	0.787 µM	0.925	> 10 µM
NCI-H1693 (lung adenocarcinoma, adherent)	0.902	> 0.0125 µM	0.926	> 2 µM	0.93	> 10 µM	0.967	> 20 µM	0.969	> 1.02 µM	0.106	< 0.02 µM	0.949	> 2.56 µM	0.975	> 0.128 µM	0.969	> 1 µM	0.727	1.06 µM	0.598	2.72 µM	0.738	4.61 µM
NCI-H1755 (lung adenocarcinoma, adherent)	0.801	0.00724 µM	0.981	> 2 µM	0.974	> 10 µM	0.984	> 20 µM	0.981	> 1.02 µM	0.372	0.134 µM	0.949	> 2.56 µM	0.984	> 0.128 µM	0.977	> 1 µM	0.689	0.594 µM	0.209	0.148 µM	0.825	7.33 µM
NCI-H1781 (lung adenocarcinoma, adherent)	0.857	0.0102 µM	0.98	> 2 µM	0.989	> 10 µM	0.939	> 20 µM	0.977	> 1.02 µM	0.124	0.0201 µM	0.987	> 2.56 µM	0.964	> 0.128 µM	0.988	> 1 µM	0.926	> 2.56 µM	0.688	4.2 µM	0.905	> 10 µM
NCI-H1993 (lung adenocarcinoma, adherent)	0.982	> 0.0125 µM	0.983	> 2 µM	0.983	> 10 µM	0.98	> 20 µM	0.94	> 1.02 µM	0.048	< 0.02 µM	0.889	> 2.56 µM	0.964	> 0.128 µM	0.968	> 1 µM	0.859	> 2.56 µM	0.706	5.81 µM	0.897	> 10 µM
NCI-H2009 (lung adenocarcinoma, adherent)	0.614	0.00164 µM	0.978	> 2 µM	0.959	> 10 µM	0.892	> 20 µM	0.982	> 1.02 µM	0.188	0.0348 µM	0.949	> 2.56 µM	0.962	> 0.128 µM	0.984	> 1 µM	0.604	0.315 µM	0.922	> 20 µM	0.87	> 10 µM
NCI-H2052 (mesothelioma, adherent)	0.8	0.00811 µM	0.979	> 2 µM	0.983	> 10 µM	0.914	> 20 µM	0.974	> 1.02 µM	0.27	0.0582 µM	0.982	> 2.56 µM	0.975	> 0.128 µM	–	–	0.608	0.344 µM	0.887	> 20 µM	0.765	4.69 µM
NCI-H2110 (non-small cell lung carcinoma, adherent)	0.71	0.0031 µM	0.986	> 2 µM	0.979	> 10 µM	0.8	9.97 µM	0.956	> 1.02 µM	0.04	< 0.02 µM	0.669	0.48 µM	0.803	0.0652 µM	0.974	> 1 µM	0.818	1.5 µM	0.364	0.521 µM	0.929	> 10 µM
NCI-H2172 (non-small cell lung carcinoma, adherent)	0.967	> 0.0125 µM	0.981	> 2 µM	0.983	> 10 µM	0.974	> 20 µM	0.952	> 1.02 µM	0.655	1.01 µM	0.592	0.313 µM	0.966	> 0.128 µM	0.981	> 1 µM	0.829	2.43 µM	0.595	2.49 µM	0.847	> 10 µM
NCI-H2291 (lung adenocarcinoma, adherent)	0.899	> 0.0125 µM	0.979	> 2 µM	0.979	> 10 µM	0.982	> 20 µM	0.983	> 1.02 µM	0.838	> 5.12 µM	0.984	> 2.56 µM	0.983	> 0.128 µM	0.951	> 1 µM	0.968	> 2.56 µM	0.974	> 20 µM	0.88	> 10 µM
NCI-H2342 (lung adenocarcinoma, adherent)	0.928	> 0.0125 µM	0.983	> 2 µM	0.981	> 10 µM	0.885	> 20 µM	0.972	> 1.02 µM	0.056	< 0.02 µM	0.954	> 2.56 µM	0.982	> 0.128 µM	0.983	> 1 µM	0.615	0.343 µM	0.862	> 20 µM	0.804	5.61 µM
NCI-H2347 (lung adenocarcinoma, adherent)	0.856	> 0.0125 µM	0.981	> 2 µM	0.982	> 10 µM	0.95	> 20 µM	0.975	> 1.02 µM	0.038	< 0.02 µM	0.93	> 2.56 µM	0.967	> 0.128 µM	0.981	> 1 µM	0.743	0.944 µM	0.505	1.29 µM	0.837	8.85 µM
NCI-H2405 (lung adenocarcinoma, adherent)	0.944	> 0.0125 µM	0.984	> 2 µM	0.986	> 10 µM	0.986	> 20 µM	0.986	> 1.02 µM	0.204	0.0382 µM	0.912	> 2.56 µM	0.921	> 0.128 µM	0.984	> 1 µM	0.877	> 2.56 µM	0.667	3.84 µM	0.953	> 10 µM
NCI-H2444 (non-small cell lung carcinoma, adherent)	0.911	> 0.0125 µM	0.977	> 2 µM	0.982	> 10 µM	0.988	> 20 µM	0.988	> 1.02 µM	0.302	0.0815 µM	0.987	> 2.56 µM	0.988	> 0.128 µM	0.939	> 1 µM	0.862	> 2.56 µM	0.461	0.966 µM	0.897	> 10 µM
NCI-H2452 (mesothelioma, adherent)	0.669	0.00254 µM	0.984	> 2 µM	0.984	> 10 µM	0.971	> 20 µM	0.961	> 1.02 µM	0.239	0.0475 µM	0.975	> 2.56 µM	0.983	> 0.128 µM	0.982	> 1 µM	0.9	> 2.56 µM	0.945	> 20 µM	0.809	6.46 µM
NCI-H3122 (lung adenocarcinoma, adherent)	0.664	0.00227 µM	0.986	> 2 µM	0.985	> 10 µM	0.97	> 20 µM	0.85	0.81 µM	0.056	< 0.02 µM	0.957	> 2.56 µM	0.63	0.0185 µM	–	–	0.731	0.746 µM	0.365	0.524 µM	0.925	> 10 µM
